In PubChem BioAssay AID588342 (National Center for Advancing Translational Sciences (NCATS), 2011):
Among all 360,000 compounds or so, about 25,000 (6.9%) were called active. Inconclusive means that the source gave no clear call. Such entries were picked first, then a sample of the others. Calls come from the whole dose curve; as a rule, active = well fitted inhibition curve with a large enough effect; inconclusive = small, poorly fitted or top-dose-only effect; inactive = flat fitted curve, though single readings scatter. Where the call is inconclusive, the potency comes from a doubtful curve fit.
Note: nearly all actives have a fitted effect of over 55% in size.
Potency is the fitted concentration of half-maximal effect; tags give direction and shape of the fitted curve.

Each molecule was assayed against Luciferin 4-monooxygenase (Photinus pyralis) (UniProt P08659) (assay: qHTS profiling assay for firefly luciferase inhibitor/activator using purifed enzyme and Km concentrations of substrates (counterscreen for miR-21 project)). Conditions: purified FLuc, luminescence inhibition; series mostly up to 57.5 µM.
UniProt P08659, sequence (P08659 whole entry, looked up): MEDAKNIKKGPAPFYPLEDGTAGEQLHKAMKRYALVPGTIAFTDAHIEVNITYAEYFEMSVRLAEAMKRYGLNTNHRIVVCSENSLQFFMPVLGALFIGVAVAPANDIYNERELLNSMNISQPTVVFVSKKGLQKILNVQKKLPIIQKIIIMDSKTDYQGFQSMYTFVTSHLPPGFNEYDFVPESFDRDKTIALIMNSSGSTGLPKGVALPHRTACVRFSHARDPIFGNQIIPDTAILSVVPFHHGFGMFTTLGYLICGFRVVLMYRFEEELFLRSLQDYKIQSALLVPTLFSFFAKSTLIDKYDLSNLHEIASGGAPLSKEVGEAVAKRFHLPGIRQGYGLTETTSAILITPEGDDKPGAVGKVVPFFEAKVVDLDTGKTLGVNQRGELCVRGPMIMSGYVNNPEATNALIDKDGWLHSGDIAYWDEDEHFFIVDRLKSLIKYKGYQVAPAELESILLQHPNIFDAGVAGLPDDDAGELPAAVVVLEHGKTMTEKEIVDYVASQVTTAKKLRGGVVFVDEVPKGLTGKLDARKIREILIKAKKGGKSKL
Summary of the method: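 Purified P. pyralis luciferase, 10 nM final, with Km-level 10 uM D-luciferin and 10 uM ATP in 50 mM Tris acetate pH 7.5, 10 mM Mg acetate, 0.01% Tween-20, 0.05% BSA; 6-point qHTS titration about 60 µM downward; luminescence read.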
COc1ccc(OCCN2C(=O)c3ccccc3C2=O)cc1 was tested, and the Potency was inconclusive: 19 µM [inhibitor, partial curve].
In the case of O=C(OCCc1cc2ccccc2c(=O)o1)c1ccco1, the Potency is reported as active: 5.36 µM.
With O=C(Nc1cccc2cccnc12)c1ccc(Cl)cc1 the Potency was active: 30.1 µM.
For Cc1cc(C(=O)NCC(=O)OCC(=O)N(C(C)C)C(C)C)ccc1[N+](=O)[O-], the Potency was “inactive”.
Cc1ccc(CONC(=O)c2ccc(Cl)cc2)cc1 was tested, and the Potency was inconclusive: 9.53 µM [inhibitor, partial curve].
For CO/N=C/c1cccn1-c1nccc(OC)c1C#N, the Potency was “inactive”.
For O=C(Nc1nc2ccccc2[nH]1)c1cc2ccccc2o1, the Potency was active: 1.35 µM.
CCN(CC)C(=O)c1cc2c(=O)oc3ccccc3c2s1 was tested, and the Potency was inconclusive: 37.9 µM [inhibitor, single point].
For On1nnc2ccc(C(F)(F)F)cc21, the Potency was inconclusive: 30.1 µM [inhibitor, partial curve, poor fit].
For Nc1cc(N2CCCC2)c(Cl)cc1[N+](=O)[O-], the Potency was inconclusive: 26.9 µM [inhibitor, single point].
O=C(CCSc1ccc(Cl)cc1)N1CCN(c2ccc(O)cc2)CC1 was tested, and the Potency was inconclusive: 37.9 µM [inhibitor, single point].
With O=C(CNC(=O)c1ccco1)Nc1ccc(Br)cc1 the Potency was inconclusive: 37.9 µM [inhibitor, single point].
With CC(=O)Nc1cccc(NC(=O)Nc2ccc(F)cc2F)c1 the Potency was inconclusive: 23.9 µM [inhibitor, partial curve, poor fit].
Cn1c(-c2ccc(F)cc2)cnc1NCc1ccccc1F was tested, and the Potency was inconclusive: 37.9 µM [inhibitor, partial curve, poor fit].
In the case of Cc1ccccc1Cn1cnc2c(cnn2C(C)(C)C)c1=O, the Potency is reported as inconclusive: 16.9 µM [inhibitor, partial curve, poor fit].
CCc1cccc(NCc2ccccc2-c2nnc(-c3ccccc3Cl)o2)c1 was tested, and the Potency was active: 3.38 µM.
O=C(CN1C(=O)c2ccccc2S1(=O)=O)c1ccc(F)c(F)c1 was tested, and the Potency was active: 10.7 µM.
For CC(=O)N1CCc2cc(S(=O)(=O)CCC(=O)NCCc3ccc(Cl)cc3)ccc21, the Potency was “inactive”.
For COCC(=O)Nc1ccc(Nc2ccccc2)cc1, the Potency was inconclusive: 30.1 µM [inhibitor, partial curve, poor fit].
With COc1ccccc1OCCCN1C(=O)C(=O)c2cccc(C)c21 the Potency was inconclusive: 37.9 µM [inhibitor, single point].
For COc1ccc(C(=O)Nc2cc3c4c(c2)C(C)C(=O)N4CCC3)cc1 (stereo unspecified), the Potency was active: 12 µM.
With CNC(=O)c1cc(C)c(-c2ccccc2)s1 the Potency was inconclusive: 16.9 µM [inhibitor, partial curve].
O=C(Cn1cc(S(=O)(=O)Cc2ccc(F)cc2)c2ccccc21)NCc1ccccc1Cl was tested, and the Potency was inconclusive: 5.36 µM [inhibitor, partial curve, poor fit].
In the case of COc1cccc(/C=N/NC(=O)CSCC(=O)Nc2ccccc2)c1O, the Potency is reported as inconclusive: 19 µM [inhibitor, partial curve].
For COc1cc(/C=C2\C(=N)N3N=CSC3=NC2=O)ccc1OS(=O)(=O)c1ccccc1[N+](=O)[O-], the Potency was inconclusive: 30.1 µM [inhibitor, partial curve, poor fit].
Nc1c(C(=O)Nc2ccc(Br)cc2)sc2nc(-c3ccco3)ccc12 was tested, and the Potency was inconclusive: 9.53 µM [inhibitor, partial curve].
With CCOC(=O)CNC(=O)c1sc(NC(=O)c2ccccc2)nc1C the Potency was inconclusive: 21.3 µM [inhibitor, single point].
Cc1cccc(-c2nc3scc(CCNC(=O)c4ccccc4Cl)n3n2)c1 was tested, and the Potency was inconclusive: 37.9 µM [inhibitor, partial curve, poor fit].
For CC(C)c1nn2c(=O)cc(COC(=O)c3ccc(NC(=O)CCc4ccccc4)cc3)nc2s1, the Potency was “inactive”.
With CCOC(=O)c1sc2nc(C)nc(NCc3ccc(Cl)cc3)c2c1C the Potency was “inactive”.
In the case of NC(=O)c1ccccc1OC1CCC1, the Potency is reported as “inactive”.
For CC1CCN(CCNC(=O)c2ccc(Cn3c(SCc4ccccc4)nc4cccnc43)cc2)CC1, the Potency was active: 12 µM.
Nc1nc(SCC(=O)Nc2ccc([N+](=O)[O-])cc2Br)n[nH]1 was tested, and the Potency was “inactive”.
For Cc1cccc(C)c1NC(=O)c1ccc(N2CCCC2=O)cc1, the Potency was “inactive”.
For Cc1ccc(C)c(C(=O)COC(=O)c2ccc(Br)o2)c1, the Potency was inconclusive: 37.9 µM [inhibitor, single point].
With COc1ccc(SCCN2CC[C@@H](C(C)(C)C)CCC2=O)cc1 the Potency was inconclusive: 23.9 µM [inhibitor, single point].
CC(C)c1ccc(NC(=S)NN2CCOCC2)cc1 was tested, and the Potency was inconclusive: 23.9 µM [inhibitor, partial curve, poor fit].
For O=C(COc1ccc(F)cc1)Nc1ccc2nc(SCc3ccccc3)sc2c1, the Potency was “inactive”.
In the case of COCCn1c(C)cc(C(=O)COC(=O)CCN2C(=O)c3ccccc3C2=O)c1C, the Potency is reported as inconclusive: 13.5 µM [inhibitor, partial curve].
In the case of COc1ccc(Cc2nnc(N/N=C/c3ccc(O)cc3O)[nH]c2=O)cc1OC, the Potency is reported as inconclusive: 30.1 µM [inhibitor, partial curve, poor fit].
With NC(=NC(=O)c1cccc(C(F)(F)F)c1)c1ccc(C(F)(F)F)cn1 the Potency was inconclusive: 37.9 µM [inhibitor, single point].
For COc1ccc(-n2nnc3c(SCC(=O)Nc4ccccc4F)ncnc32)cc1, the Potency was inconclusive: 9.53 µM [inhibitor, partial curve].
With O=C(Nc1cccc(C(F)(F)F)c1)c1ccc(Cn2cc(Br)cn2)o1 the Potency was “inactive”.
With O=C(CC1SC(N2CCCCC2)=NC1=O)Nc1cccc(C(=O)Nc2ncccc2O)c1 (stereo unspecified) the Potency was inconclusive: 33.8 µM [inhibitor, single point].
For CSCCCNC(=O)c1ccc(OC2CCN(CCc3ccccc3)CC2)cc1, the Potency was inconclusive: 37.9 µM [inhibitor, partial curve, poor fit].
With CC(=O)c1ccc(NC(=O)CNCc2cccs2)cc1 the Potency was inconclusive: 37.9 µM [inhibitor, single point].
For Cc1ccc(Nc2nc(N/N=C/c3c[nH]c4ccccc34)nc(N3CCOCC3)n2)cc1, the Potency was inconclusive: 37.9 µM [inhibitor, partial curve, poor fit].
For CCCNC(=O)c1cc(-c2ccc(OC)cc2)on1, the Potency was active: 2.39 µM.
In the case of CCNc1nc2ccccc2[nH]1, the Potency is reported as “inactive”.
In the case of Cc1cccc2cc(CN(CCCO)C(=O)Nc3ccc(Cl)cc3)c(=O)[nH]c12, the Potency is reported as inconclusive: 23.9 µM [inhibitor, single point].
With O=C(N/N=C/c1ccc[nH]1)c1ccccc1OCc1ccccc1Cl the Potency was inconclusive: 37.9 µM [inhibitor, partial curve, poor fit].
For COc1ccc(OCCOCCOc2ccc(C)cc2[N+](=O)[O-])cc1, the Potency was inconclusive: 37.9 µM [inhibitor, partial curve, poor fit].
With O=C(NCc1csc(-c2cccs2)n1)c1ccccc1 the Potency was inconclusive: 30.1 µM [inhibitor, partial curve, poor fit].
In the case of COc1cccc(N/C=C(\C#N)c2ccc(OCCCF)cc2)c1, the Potency is reported as inconclusive: 37.9 µM [inhibitor, single point].
With CC(C)c1ccc(/C=N/Nc2ccc(C(=O)O)cc2)cc1 the Potency was active: 0.19 µM.
For O=C(NCc1ccccc1)c1ccc2ccccc2n1, the Potency was “inactive”.
For O=C1C=CC(=O)N1c1ccc(N2CCCCC2)cc1, the Potency was inconclusive: 10.7 µM [inhibitor, partial curve].
COc1ccc(C(=O)NNC(=S)NC(=O)c2ccco2)cc1 was tested, and the Potency was inconclusive: 37.9 µM [inhibitor, partial curve, poor fit].
For Cc1cccc(N2C(=O)CCSC23C(=O)N(Cc2ccc(F)cc2)c2ccccc23)c1 (stereo unspecified), the Potency was “inactive”.
COc1ccc(NC(C)=O)cc1S(=O)(=O)NC(Cc1ccccc1)C(=O)NCc1ccccc1C (stereo unspecified) was tested, and the Potency was inconclusive: 30.1 µM [inhibitor, partial curve, poor fit].
In the case of O=c1c(C=NCCN2CCNCC2)c(-c2ccccc2)[nH]n1-c1ccc([N+](=O)[O-])cc1, the Potency is reported as inconclusive: 19 µM [inhibitor, partial curve, poor fit].
With CC(/C=N/NC(=O)Cc1cccs1)=C\c1ccco1 the Potency was inconclusive: 23.9 µM [inhibitor, partial curve].
With Cc1ccc2sc(NNC(=O)C3COc4ccccc4O3)nc2c1C (stereo unspecified) the Potency was “inactive”.
c1ccc(OCCSc2nnnn2C2CCCCC2)cc1 was tested, and the Potency was active: 2.13 µM.
CCCn1c(N)c(C(=O)COC(=O)CNC(=O)c2ccccc2OCC)c(=O)[nH]c1=O was tested, and the Potency was “inactive”.
COc1ccc(-c2nnc(SCC(=O)Nc3ccc(F)cc3)s2)cc1 was tested, and the Potency was inconclusive: 21.3 µM [inhibitor, partial curve, poor fit].
In the case of O=C(CN1C(=O)NC2(CCOc3ccccc32)C1=O)c1ccc[nH]1 (stereo unspecified), the Potency is reported as “inactive”.
With O=C(O)c1nc(Cl)c(Cl)c(N/N=C/c2ccccc2C(F)(F)F)c1Cl the Potency was inconclusive: 30.1 µM [inhibitor, partial curve, poor fit].
With Cc1ccc(Nc2nnc(SC/C(O)=C(\C#N)c3nc4ccccc4[nH]3)s2)c(C)c1 the Potency was inconclusive: 23.9 µM [inhibitor, single point].
COC(=O)c1nn(-c2ccccc2)c(Cl)c1/C=N/OCc1ccc(C)cc1 was tested, and the Potency was inconclusive: 23.9 µM [inhibitor, partial curve].
For CCC(=O)Oc1ccc(-c2nc3ccccc3c(=O)o2)cc1, the Potency was active: 1.69 µM.
